Measured values taken from patent publication US20120329832A1, “Novel Insect-Repellent Coumarin Derivatives, Syntheses, and Methods of Use” (priority 2011, published 2012).
Where “and” joins values, the source holds several entries; their conditions need not be identical. Equal entries are not always repeated. The name of at least one read-out is uncertain.

Test system: drosophila
Experiment: Tests in vivo on drosophila: two-tube repellency test, Repulsive Index
Experimental: Description of Test system. To evaluate repellent efficacy, compounds were added to test chambers, each containing 40 drosophila. The test was performed in 3 phases: 1) fast (flies aspirated to test tubes); 2) implementation of the system (addition of filter paper, addition of solvent containing test compound); and 3) counting of the flies (after 22 hours exposure to test compound). The number of drosophila in each tube were counted: number of flies in the “filter paper+Solvent” tube was designated N1 and the number of flies in the “filter paper impregnated with test compound” was designated N2.
The Repulsive Index (R1) is given by the following equation: (N1−N2)/(N1+N2).

[1] = share of drosophila in product tube versus EtOH tube after 22 hours, product concentration not given
[2] = share of drosophila in solvent tube (filter paper + EtOH) after 22 hours, product concentration not given
[3] = share of drosophila in product tube versus AcOEt tube, product concentration not given
[4] = solvent AcOEt according to Table 2, Tested Concentration 0.850-0.977 mmol/mL

Row | SMILES | In vivo tests: Tube product [1] | In vivo tests: Tube EtOH [2] | other results
1 | O=C(O)/C=C/c1ccccc1O | 47.57% | 52.43% | –
2 | CCCCC(CC)C(=O)Oc1ccc2ccc(=O)oc2c1 (stereo not shown) [EV04016] | 44.50% | 55.50% | –
3 | C/C=C(\C)C(=O)Oc1ccc2ccc(=O)oc2c1 [EV04024] | 37.06% | 62.94% | –
4 | CCC(C)C(=O)Oc1ccc2ccc(=O)oc2c1 (stereo not shown) [EV04030] | 55.20% | 44.80% | –
5 | C=CCOc1ccc2ccc(=O)oc2c1 [EV04032] | 40.72% | 59.28% | In vivo tests: Tube product [3]: 37.75%; Repulsive Index (RI) [4]: 0.245
6 | CCCCOc1ccc2ccc(=O)oc2c1 [EV04036] | Tube EtOH: 50% Tube product: 50% | Tube EtOH: 50% Tube product: 50% | –
7 | CC(C)Oc1ccc2ccc(=O)oc2c1 [EV04054] | 17.26% | 82.74% | –
8 | CCC(C)CC(=O)Oc1ccc2ccc(=O)oc2c1 (stereo not shown) [EV04062] | 48.10% | 51.90% | –
9 | CC1CCCCC1Oc1ccc2ccc(=O)oc2c1 (stereo not shown) [EV04084] | 50.52% | 49.48% | –
10 | C=C(C)C1CC=C(COc2ccc3ccc(=O)oc3c2)CC1 (stereo not shown) [EV04090] | – | – | In vivo tests: Tube product (share of drosophila in product tube versus CH2Cl2 tube, product concentration not given): 29.80%
11 | CC(C)COC1CCC2CCC(=O)OC2C1 (stereo not shown) [EV04188] | 17.65% | 82.35% | –
12 | COC(=O)/C=C/c1ccccc1O [EV05056] | 29.90% | 70.10% | –
13 | CCN(CC)C(=O)c1ccc2ccc(=O)oc2c1 [EV05084] | 34.97% | 65.03% | –
14 | O=C(COc1ccc2ccc(=O)oc2c1)N1CCCCC1 [EV05088] | 46.60% | 53.40% | –
15 | CCN(CC)C(=O)COc1ccc2ccc(=O)oc2c1 [EV05096] | 9.89% | 90.11% | –
16 | O=C(c1ccc2ccc(=O)oc2c1)N1CCCCC1 [EV05118] | 55.17% | 44.83% | –
17 | CCCCN(CCCC)C(=O)COc1ccc2ccc(=O)oc2c1 [EV05120] | – | – | Repulsive Index (RI) (EtOH, Tested Concentration 1.032 mmol/mL): 0.938; In vivo tests: Tube EtOH (product at 1.032 mmol/mL, share of drosophila in EtOH tube): 96.89%; In vivo tests: Tube product (product at 1.032 mmol/mL, share of drosophila in product tube versus EtOH tube): 3.11%
18 | CC1CCCCN1C(=O)COc1ccc2ccc(=O)oc2c1 (stereo not shown) [EV05134] | – | 88.94% and 62.05% and 72.41% | –
19 | CC1CCCCN1C(=O)c1ccc2ccc(=O)oc2c1 (stereo not shown) [EV05144] | 19.90% | 80.10% | –
20 | CCC(CC)OC(=O)c1ccc2ccc(=O)oc2c1 [EV05162] | 18.78% and 36.82% and 32.14% | 81.22% and 63.18% and 67.86% | –
21 | CCC(CC)Oc1ccc2oc(=O)ccc2c1 [EV06018] | 28.50% | 71.50% | In vivo tests: Tube product [3]: 18.93%; Repulsive Index (RI) [4]: 0.621
22 | CCC(C)OC(=O)COc1ccc2ccc(=O)oc2c1 (stereo not shown) [EV06046] | 44.78% and 47.76% | 55.22% and 52.24% | –
23 | CCC(C)COC(=O)COc1ccc2ccc(=O)oc2c1 (stereo not shown) [EV06058] | 24.26% | 75.74% | –
24 | CCCCCOc1cc(=O)oc2ccccc12 [EV06136] | – | – | Repulsive Index (RI) [4]: 0.771
25 | CCC(C)NC(=O)c1ccc2ccc(=O)oc2c1 (stereo not shown) [EV06166] | 37.42% | 62.58% | –
